Source: ChEMBL document CHEMBL4888484, “Replenishing the malaria drug discovery pipeline: Screening and hit evaluation of the MMV Hit Generation Library 1 (HGL1) against asexual blood stage Plasmodium falciparum ,using a nano luciferase reporter read-out” (2022)
Among all 150,000 compounds or so, about 540 (0.36%) showed an effect of 50% or more. This is one part of the list.

tested on: Plasmodium falciparum; test: Primary screen in NF54 nanoGlo assay, in single point, at 2uM, 72h; a lower Z score goes with more inhibition; format: functional, Erythrocyte; details: timepoint 72 hour

Compound	% Inhibition [%]	Z score
Cc1ncoc1C(=O)N(C)Cc1csc(-c2ccccc2)n1	5	-0.79
Cc1ccc(OCC2c3ccsc3CCN2C(=O)CN(CC2CCCO2)C(=O)c2cccc(Cl)c2)c(C)c1 (stereo not drawn)	-10	1.36
CO[C@]12CCC[C@@]1(NCc1cnc3onc(C)c3c1)CCO2	0	-0.01
O=C(CC1CC2CCC1C2)Nc1nccs1 (stereo not drawn)	16	-1.91
CC(C)c1ncc(NC(=O)c2cccc3cc[nH]c23)cn1	-1	0.27
CC(C)O[C@H]1CN(C(=O)c2cc(Cl)cn2C)C[C@@H]1O	-1	0.14
Cc1cc(C)c(NC(=O)[C@H]2CCCN(S(=O)(=O)Cc3cccc(Cl)c3)C2)c(C)c1	7	-0.95
Cc1noc(C2CCN(C(=O)c3nccnc3C)CC2)n1	5	-0.85
CCOc1ccccc1NC(=O)N1CC[C@H](Cn2c(C)cnc2C2CCC2)C1	-10	1.36
CN(C)C(=O)c1noc2c1CN(C(=O)[C@@H]1COc3ccccc3C1)CC2	-9	1.13
CC(=O)N1CCC(Cc2ccc(CN(Cc3ccc(C#N)cc3)C3CC3)cc2)CC1	-11	2.21
O=S(=O)(c1cccc(-c2nc3c4ccccc4nc(O)n3n2)c1)N1CCCC1	-10	0.93
Cc1oncc1C(=O)NCc1ccsc1	-3	0.63
CCNC(=O)CN(CC)c1nc(C2CC2)ns1	-7	1.28
O=C([C@H]1CC(=O)N(c2ccccc2)C1)N1CCCC1	-1	0.12
Cc1nn(C)c(C)c1OCC1(CS(C)(=O)=O)CC1	-1	0.22
COc1ccccc1CNC(=O)CC(C)=O	1	-0.29
CCc1nc(CN(CC(C)C)C(=O)C(C)C)[nH]c(=O)c1Cc1ccc(OC)cc1	-7	1.23
O=C(COc1ccc2c(c1)C(=O)CC2)NCc1ccccn1	5	-0.64
O=C(NCCc1ccccc1)N1CCC[C@@](F)(C(=O)N2CCOCC2)C1	-17	1.54
Cc1cccc(OCC(=O)N(Cc2cccc(Br)c2)[C@H]2CCS(=O)(=O)C2)c1	0	-0.02
Cc1ccc(CNC(=O)NCC(=O)N2CCOCC3(CC3)C2)cc1	-6	0.74
CCOC(=O)c1cn(C)nc1NS(=O)(=O)c1ccc(C)nc1	-18	3.38
CC(C)NC(=O)c1coc(CN(Cc2ccc(F)cc2)Cc2ccc(C(C)C)cc2)n1	5	-0.76
